# Measured values taken from paper PMC4336329 (PLoS ONE, 2015).
# In all, about 310,000 compounds went through this assay and about 2,200 (0.71%) showed an effect of 50% or more. The effect is printed as a negative number. This is one part of the list.
# Molecular target: human ether-à-go-go-related gene (hERG) potassium channel (human, UniProt Q12809)
# Test: primary screen, population patch clamp on CHO cells stably expressing hERG
# human ether-à-go-go-related gene (hERG) potassium channel, sequence (Q12809 whole entry, looked up): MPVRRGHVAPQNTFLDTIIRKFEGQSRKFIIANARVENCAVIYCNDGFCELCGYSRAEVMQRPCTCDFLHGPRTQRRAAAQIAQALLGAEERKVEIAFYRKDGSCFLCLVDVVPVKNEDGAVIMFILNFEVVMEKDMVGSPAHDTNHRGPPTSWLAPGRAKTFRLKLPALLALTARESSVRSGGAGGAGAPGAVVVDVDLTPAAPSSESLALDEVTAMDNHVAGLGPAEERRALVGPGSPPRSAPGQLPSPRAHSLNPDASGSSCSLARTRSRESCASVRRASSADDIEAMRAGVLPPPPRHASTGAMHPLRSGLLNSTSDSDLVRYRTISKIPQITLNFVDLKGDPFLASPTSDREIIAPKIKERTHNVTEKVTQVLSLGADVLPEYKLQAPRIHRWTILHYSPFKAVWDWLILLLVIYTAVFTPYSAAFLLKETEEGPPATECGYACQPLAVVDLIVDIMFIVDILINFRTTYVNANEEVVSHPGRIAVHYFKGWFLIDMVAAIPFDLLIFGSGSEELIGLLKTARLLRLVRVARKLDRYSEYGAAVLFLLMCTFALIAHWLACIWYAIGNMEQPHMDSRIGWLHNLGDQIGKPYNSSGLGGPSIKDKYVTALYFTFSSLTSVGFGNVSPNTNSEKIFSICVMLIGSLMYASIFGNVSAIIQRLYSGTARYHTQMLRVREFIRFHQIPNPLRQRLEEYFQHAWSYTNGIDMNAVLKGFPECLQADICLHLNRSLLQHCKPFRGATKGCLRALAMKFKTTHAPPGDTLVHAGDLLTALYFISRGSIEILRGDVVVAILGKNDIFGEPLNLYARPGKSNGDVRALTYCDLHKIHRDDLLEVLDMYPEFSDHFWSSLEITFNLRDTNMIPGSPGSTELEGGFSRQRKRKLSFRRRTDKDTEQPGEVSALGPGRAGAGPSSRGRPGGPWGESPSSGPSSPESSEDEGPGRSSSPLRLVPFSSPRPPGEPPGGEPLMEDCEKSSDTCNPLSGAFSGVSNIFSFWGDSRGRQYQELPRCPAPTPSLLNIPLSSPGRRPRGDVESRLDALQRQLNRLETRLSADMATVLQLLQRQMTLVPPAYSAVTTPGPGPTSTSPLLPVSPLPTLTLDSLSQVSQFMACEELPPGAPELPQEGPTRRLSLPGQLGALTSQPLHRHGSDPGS
row,Structure (SMILES),"hERG current change (%, negative = inhibition) at 1uM [%]"
1,Cc1cc(NC(=O)CCOc2ccccc2)no1,-0.681
2,CCCC(CCC(=O)OC)(C(=O)OCC)c1csc(N)n1 (centres unmarked),-4.83
3,CCOC(=O)N1CCC(NC(=O)CN2C(=O)CSc3nc(C)cc(C)c32)CC1,16.6
4,CC(=O)c1c(C)[nH]c(C(=O)COC(=O)CCCOc2ccccc2)c1C,3.62
5,COc1ccc([N+](=O)[O-])cc1NC(=O)C(C)OC(=O)CN1C(=O)C2CC=CCC2C1=O (centres unmarked),4.05
6,O=C(NC(=S)Nc1cccc2cnccc12)c1ccccc1,12.1
7,Cc1cc([N+](=O)[O-])ccc1NC(=O)CSc1nnc(C)n1C,14.4
8,CCc1ccc(NC(=O)C2CCCN(S(=O)(=O)c3ccc4[nH]c(=O)ccc4c3)C2)cc1 (centres unmarked),22.3
9,COC(=O)CCCC1=CC2=CC(=O)C(C)(OC(=O)c3ccco3)C(=O)C2=CO1 (centres unmarked),-0.223
10,CC(C)(C)c1ccc(C2(C)NC(=O)N(CC(=O)Nc3ccc4c(c3)OCO4)C2=O)cc1 (centres unmarked),1.3
11,CC1=CC(C)(C)NC(=S)N1c1ccccc1C,9.99
12,Cc1nnc(NC(=O)CN2C(=O)c3ccccc3S2(=O)=O)s1,7.28
13,c1ccc(Oc2ccc(-c3ccnc4ncnn34)cc2)cc1,17.1
14,Cc1ccnc(NC(=O)c2sc3cc(Cl)ccc3c2Cl)c1,16.4
15,CCCn1c(=N)c(S(=O)(=O)c2ccc(F)cc2)cc2c(=O)n3cccc(C)c3nc21,7.37
16,COc1cccc(NC(=O)Nc2cccs2)c1,-1.73
17,O=C(Nc1cccc(F)c1)c1ccc(Br)o1,-2.95
18,CC(=O)Nc1ccccc1NC(=O)C/C(C)=N/NC(=O)c1ccc([N+](=O)[O-])c(Cl)c1,28.1
19,COc1ccc(C(=O)N/C(=C\c2ccco2)C(=O)OCc2ccco2)cc1,-4.42
20,Cc1ccccc1C1=N/C(=C/c2cccs2)C(=O)O1,16.6
21,CCN(CC)C(=O)c1cc2c(=O)c3cc(F)ccc3oc2nc1C,9.93
22,Nc1nonc1C(=O)NCCN=Cc1cc(Cc2ccccc2)cc(Br)c1O,-7.82

row,Structure (SMILES),"hERG current change (%, negative = inhibition) at 1uM [%]"
1,Cc1ccc2c(c1)c1c(n2CC2COC(C)(C)O2)C(=O)CCC1 (centres unmarked),-2.2
2,O=C(/C=C/c1c[nH]c2ccccc12)c1cccc2ccccc12,17.7
3,Cc1cccc(OCC(O)CN2C(C)(C)CC(O)CC2(C)C)c1 (centres unmarked),-6.61
4,COc1cccc(/C=C/C(=C2/C(=O)N(c3ccccc3)N=C2C)c2ccc(C)cc2)c1OC,9.15
5,Cc1ccc(/C=N/Nc2nc(C(C)(C)C)cs2)o1.Cl,7.31
6,Cn1c(/N=C/c2c[nH]c3ccccc23)nc2ccccc21,12.2
7,O=C(CCC(=O)Nc1ccccc1)NNS(=O)(=O)c1ccc(Cl)cc1,11.5
8,COc1ccccc1Cc1noc(-c2cc(Cl)ccc2OC)n1,10.9
9,CCN1CCN(C(C(=O)NC2CCCC2)c2cc3c(cc2[N+](=O)[O-])OCO3)CC1 (centres unmarked),7.69
10,O=C1NCCCCC1NS(=O)(=O)c1cccc2ccccc12 (centres unmarked),12
11,O=C1CSCC(=O)N1Cc1ccc(Cl)c(Cl)c1,14.3
12,CC(C)(C)c1ccc(-n2ncc3c2CCCC3NC(=O)CN2CCCC2=O)cc1 (centres unmarked),4.64
13,CCC(=O)N(CCc1ccccc1C)Cc1cc2ccc(C)cc2[nH]c1=O,10.5
14,N#Cc1ccc(CSc2nc(N)cc(=O)[nH]2)cc1,6.42
15,CC1CCCC(N2CCN(C(=O)c3ccc(F)cc3)CC2)C1 (centres unmarked),-25
16,CCN(CC)C1CCN(c2nc3nonc3nc2NCCOC)C1 (centres unmarked),4.76
17,O=C(/C=C/c1cccs1)Nc1ccc(Br)cn1,11.3
18,COc1cc(NC(C)=O)c2ncccc2c1[N+](=O)[O-],6.48
19,CCOC(=O)c1cc2sccc2n1CC(=O)Nc1ccc(OC)cc1OC,-0.342
20,Cc1cc(-c2ccc(C(C)C)c(S(=O)(=O)N3CCOc4ccccc43)c2)on1,18.2
21,Cc1ccc(NC(=O)COc2nc(C)cs2)cc1,9.3
22,Cc1ccc(S(=O)(=O)CCC(=O)OCC(=O)Nc2cc(F)ccc2C)cc1,15.5
